Measurements from PubChem BioAssay AID652104 (National Center for Advancing Translational Sciences (NCATS), 2013).
“And” between values parts separate entries of the source, which are not always exact repeats. Equal values may be shown once. Out of some 410,000 compounds screened, about 7,200 (1.8%) were called active. Inconclusive means that the source gave no clear call. Such entries were picked first, then a sample of the others. Calls follow the shape of the dose curve; as a rule, active = well fitted activation curve with a large enough effect; inconclusive = small, poorly fitted or top-dose-only effect, or another doubt; inactive = no such curve, though single readings can be large or run the other way. Where the call is inconclusive, the potency comes from a doubtful curve fit.

Assay: qHTS of TDP-43 Inhibitors; also: nearly all actives have a fitted effect of over 50% in size; as to growth rescue (activation): % of control where 0% means no effect
Details: TDP-43 expressing yeast growth rescue, BacTiter-Glo, 24 h; growth rescue (activation): at 46.1 µM (top of the series) unless noted
Procedure, shortened: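 Luminescence from BacTiter-Glo reports growth of TDP-43-expressing yeast after 24 hr at 30 deg C with compound. Cells were raffinose-pregrown to mid-log, then seeded in galactose medium at OD600=0.02.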
Potency is read from the fitted curve at half-maximal effect; tags tell the direction and shape of the fitted curve.

Compound	Potency	growth rescue (activation)
CCOc1ccc2nc(NC(=O)c3ccc(OCC4CCCO4)cc3)sc2c1 (centres undefined)	inconclusive: 35.5 µM [activator, partial curve, poor fit]	
O=C(OC1CCCCC1)c1ccc(NC(=O)c2ccco2)cc1	active: 35.5 µM	
CC1C(=O)N(Cc2cn(CCC3OCCCO3)nn2)CCS(=O)(=O)N1Cc1ccc(-c2ccc(Cl)cc2)cc1 (centres undefined)	inconclusive: 28.2 µM [activator, partial curve]	
CC(=O)c1ccc(NC(=O)c2c3c(nc4ccccc24)C(=O)N(C2CCCCC2)C3)cc1		inactive: 0.556%
O=C(Nc1ccc(N2CCCC2)cc1)c1ccccc1F		inactive: -12.8%
c1ccc(COc2cncc(-c3cccnc3)c2)cc1		inactive: 0%
COc1ccc(-c2cnc3c(c2)C(=O)N([C@H](C)CO)C[C@@H](C)[C@@H](CN(C)C(=O)NC2CCCC2)O3)cc1	inconclusive: 35.5 µM [activator, single point]	
Cc1cccc(-n2nnc(C(=O)NCc3ccc4c(c3)OCO4)c2N)c1	active: 17.8 µM	
CCOc1ccc(C(=O)c2nc3c(n2O)CCCCC3)cc1		inactive: 3.7%
O=c1c2ccccc2nc(-c2ccoc2)n1CCc1ccccc1	inconclusive: 20 µM [activator, single point]	
Cn1cc(S(=O)(=O)c2ccccc2)c(=O)c2cc(F)c(N3CCN(c4ccccc4)CC3)cc21		inactive: 9.79%
CC1C(=O)CC(c2ccc([N+](=O)[O-])cc2)NC1c1ccc([N+](=O)[O-])cc1 (centres undefined)	inconclusive: 14.1 µM [activator, partial curve]	
Cc1sc(N/N=C/c2cccnc2)nc1-c1ccc(Cl)cc1	inconclusive: 5.01 µM [activator, full curve]	
O=C(O)c1[nH]c2ccccc2c1NS(=O)(=O)c1ccc(F)cc1		inactive: 9.16%
Cc1c(Br)c([N+](=O)[O-])nn1C(C)C(=O)N1CCCc2ccccc21 (centres undefined)	inconclusive: 31.6 µM [activator, single point]	
O=C(c1ccc2c3c(cccc13)CC2)N1CCN(c2ncccn2)CC1	inconclusive: 10 µM [activator, partial curve]	
CC(C)(C)OC(=O)C[C@@H]1C/C=C\C[C@@H](CC(=O)N(CCO)Cc2ccccc2)C(=O)N[C@H](Cc2c[nH]c3ccccc23)COC1=O		inactive: 18.6%
CC(C)(C)c1ccc(OCc2nc(-c3ccccn3)no2)c(Br)c1	inconclusive: 35.5 µM [activator, single point]	
COc1ccc(OCCn2cc(C(=O)C3CCCCC3)c3ccccc32)cc1		inactive: -3.37%
O=C(c1ccc2c(c1)CCN2S(=O)(=O)c1ccccc1)N1CCN(c2ccc(F)cc2)CC1	inactive and inconclusive: 35.5 µM [activator, partial curve]	
COc1ccccc1CN1CCN(Cc2ccc3ccccc3c2)CC1		inactive: 19.3%
CC1CCN(Cc2c(O)ccc3c(=O)c(-c4cccc(Cl)c4)c(C(F)(F)F)oc23)CC1	inconclusive: 14.1 µM [activator, single point]	
CCOC(=O)C1=C(C)OC(N)=C(C#N)C1c1ccccc1 (centres undefined)		inactive: -1.08%

Compound	Potency	growth rescue (activation)
COc1ccc(NC(=O)Cn2c(=O)sc3ccccc32)c(OC)c1	inconclusive: 11.2 µM [activator, single point]	
CCc1ccc(NC(=O)c2onc(C)c2Cl)cc1	inconclusive: 35.5 µM [activator, single point]	
Cc1cc(C)n(-c2ccc(C(=O)OCC(=O)c3ccc(Br)s3)cc2)n1	inconclusive: 31.6 µM [activator, single point]	
CC(O)(c1ccc(F)c(F)c1)c1nc(-c2cccc(C(=O)O)c2)cs1 (centres undefined)	inconclusive: 20 µM [activator, single point]	
CC1(Cc2ccc(Cl)cc2)C(=O)Nc2c(Cl)cccc21 (centres undefined)	inconclusive: 31.6 µM [activator, single point]	
O=C(COC(=O)Cc1cccs1)NCc1ccc(F)cc1	inconclusive: 35.5 µM [activator, partial curve]	
COc1ccc(C(O)c2nc(-c3ccccc3)cs2)cc1 (centres undefined)	active: 35.5 µM	
COc1ccc(-c2nnc(C3CCN(C(=O)c4ccccc4F)CC3)o2)cc1	inconclusive: 11.2 µM [activator, partial curve]	
O=C(Cc1ccc([N+](=O)[O-])cc1)c1ccc(O)cc1O	active: 15.8 µM	
COC(=O)[C@]12CCCCC=C1N(Cc1ccco1)C(=O)[C@H](CC(=O)NCC1CCCCC1)C2	inconclusive: 35.5 µM [activator, partial curve, poor fit]	
CCn1cc(CCCC(=O)NCc2ccc(OC)cc2)c2ccccc21	inconclusive: 10 µM [activator, partial curve]	
O=S(=O)(Nc1ccc2oc3c(c2c1)CCCC3)c1cc(Cl)ccc1Cl	active: 35.5 µM	
CCOc1ccc2oc(C(=O)N(C)CCc3ccc(OC)c(OC)c3)c(C)c2c1	inconclusive: 35.5 µM [activator, partial curve]	
CCC1=NN(C(=O)c2ccc(Cl)cc2)C(O)(c2ccc(C)cc2)C1 (centres undefined)		inactive: -1.14%
O=C(O)/C=C/C(=O)NNC(=O)c1ccc(Br)cc1	inconclusive: 39.8 µM [activator, partial curve, poor fit]	
O=C(NCCc1csc(-c2ccc(Cl)cc2)n1)c1cccs1	active: 17.8 µM	
CC(=O)Oc1ccccc1C(=O)C=Cc1cccc([N+](=O)[O-])c1		inconclusive: -87.2% [activator]
CCCCNc1c(-c2cccc(-c3cc(C(C)=O)cs3)c2)nc2ccc(C)cn12	active: 11.2 µM	
CCOc1ccccc1NC(=O)C1C(c2ccccc2)C1(Cl)Cl (centres undefined)	inconclusive: 10 µM [activator, partial curve]	
Cc1cccc(Sc2c([N+](=O)[O-])ncn2C)c1	inconclusive: 14.1 µM [activator, single point]	
COc1ccc(-c2nc3ccccc3nc2-c2ccc(OC)cc2)cc1	inconclusive: 35.5 µM [activator, single point]	
O=C(c1ccc(-c2cccc(C(F)(F)F)c2)o1)N1CCCC(C(F)(F)F)C1 (centres undefined)		inactive: -4.34%
Cc1cccc(Oc2nc3c(c(=O)n(C)c(=O)n3C)n2C)c1	inconclusive: 11.2 µM [activator, single point]	

Compound	Potency	growth rescue (activation)
CCCN1CCC(C(=O)NC(c2ccc(F)cc2)c2ncccc2C)CC1 (centres undefined)	inconclusive: 0.562 µM [activator, full curve, poor fit]	
Cc1cccc(-c2nnn3c2nc(NCCc2ccc(S(N)(=O)=O)cc2)c2cc(Cl)ccc23)c1		inactive: 4.37%
O=C(NCc1cccc(C(F)(F)F)c1)c1ccc2sc(COCCO)nc2c1	inconclusive: 35.5 µM [activator, partial curve, poor fit]	
COc1ccc(N2CCN(C(=O)c3cc4ccc5cccnc5c4[nH]3)CC2)cc1	inconclusive: 1 µM [activator, full curve, poor fit]	
COc1ccc(-c2cc(C)nc3c(-c4ccc(OC)c(OC)c4)c(C)nn23)cc1		inactive: 3.5%
S=C(c1ccc(-c2ccccc2)o1)N1CCCCC1		inconclusive: -87.9% [activator]
O=C(COc1cccnc1[N+](=O)[O-])Nc1ccccc1Sc1ccccc1	active: 14.1 µM	
COc1cccc(OCc2cc(C(=O)N3CCC(C(O)C(C)C)CC3)no2)c1 (centres undefined)	inconclusive: 11.2 µM [activator, partial curve]	
COc1ccc(/C=C/C(=O)c2cc(F)ccc2OC(=O)c2ccccc2OC)cc1OC	inconclusive: 14.1 µM [activator, single point]	
Cn1c(-c2ccccc2O)cc2ccccc21	inconclusive: 35.5 µM [activator, single point]	
CCOC(=O)c1c(-c2ccc(C)o2)csc1NC(=O)CSc1nnc(C)s1	inconclusive: 20 µM [activator, single point]	
Cc1nc2ccc([N+](=O)[O-])cc2c(=O)n1Cc1cccc(Br)c1	inconclusive: 14.1 µM [activator, single point]	
COc1ccc(OC)c(CCNc2ncnc3onc(-c4ccc(F)cc4)c23)c1	inconclusive: 25.1 µM [activator, single point]	
C/C(=N\Nc1cccc(C(=O)O)c1)c1ccc2c(c1)Nc1ccccc1S2		inconclusive: -84.5% [activator]
Cc1ccc(C)c(SCC(=O)c2ccc[nH]2)c1	inconclusive: 14.1 µM [activator, partial curve]	
Fc1cc(Br)ccc1Nc1c2c(nc3nc(-c4cccs4)nn13)CCCC2	active: 20 µM	
Cc1ccc(F)c(NC(=O)CCOc2ccccc2C)c1	inconclusive: 12.6 µM [activator, partial curve]	
CCCCCCCCCCS(=O)(=O)N/N=C/c1ccc(O)cc1	active: 14.1 µM	
C#CCOc1ccc(-c2nnc(Nc3cccc(C)c3)c3ccccc23)cc1	inconclusive: 0.562 µM [activator, full curve, poor fit]	
CSc1nn(Cc2ccc(Cl)cc2)c(N(C(C)=O)C(C)=O)c1S(=O)(=O)c1ccccc1	inconclusive: 35.5 µM [activator, partial curve, poor fit]	
O=C(CNC(=S)NC(=O)c1ccc(Cl)cc1)c1ccccc1		inactive: 3.47%
O=C(COC(=O)c1cc([N+](=O)[O-])ccc1N1CCOCC1)c1ccccc1Cl	inconclusive: 17.8 µM [activator, single point]	
Cc1ccc(CNC(=O)CCCCCn2c(=O)c3sccc3n(CC(=O)N(C)c3ccccc3)c2=O)cc1		inactive: 20.7%
